Reference: PubChem BioAssay AID1508623 (National Center for Advancing Translational Sciences (NCATS), 2021)
Among all 48,000 compounds or so, about 450 (0.94%) were called active. Roughly 19% stayed inconclusive and do not appear here. Calls follow the shape of the dose curve; as a rule, active = well fitted inhibition curve with a large enough effect; inconclusive = small, poorly fitted or top-dose-only effect; inactive = no such curve, though single readings can be large or run the other way. This is one part of the list.

Test: Primary qHTS for Identification of Small Molecule Inhibitors of Huntingtin Promoter Activity; also: nearly all actives have a fitted effect of over 50% in size
Details: HEK293 HTT promoter firefly luciferase reporter (activity 0% = vehicle and -100% = no light), 24 h; series mostly up to 57.5 µM; activity change, negative = inhibition: at the top concentration
How it was run: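 HEK293 cells carrying firefly luciferase reporters were seeded at 2,500 per well in Opti-MEM and cultured for 24 h. They were then treated with compounds at up to 57.5 uM final for 24 h at 37 degrees C before Dual-Glo luminescence readout.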

Activity change, negative = inhibition, inactive:
O=C(c1cccc([N+](=O)[O-])c1)N1c2ncnn2C2(CCCCC2)[C@@H]2CCCC[C@@H]21 -35.5%
Cc1ccc(S(=O)(=O)c2cnc(SCC(=O)Nc3ccc4c(c3)OCCO4)[nH]c2=O)cc1 -5%
Cc1cccc(OCc2ccc(-c3nc(C#N)c(NCCN(C)C)o3)o2)c1 -4.1%
Cc1cc(Nc2ccc(C)c(C)c2)n2cnnc2n1 5.5%
COc1ccc2c(c1)c1c(c(=O)n(-c3ccccc3C)c(=O)n1CC(=O)NCc1ccc(C)cc1)n2C -27.9%
CCOC(=O)c1c(C)oc2nc(C)nc(NCc3ccccc3Cl)c12 7.82%
Cc1ccc2cccc(NC(=O)COc3ccccc3[N+](=O)[O-])c2n1 -7.17%
CCN(CC)c1ccc(NC(=O)CSc2nnc(C)c(=O)[nH]2)cc1 -18.4%
CCCN(CCC)C(=O)CSc1nnc2cc(C)c3cc(C)cc(C)c3n12 -8.1%
CCOC(=O)c1c(NC(=O)COc2ccccc2F)sc2c1CCCC2 0%
COC(=O)c1c(-c2cccs2)csc1NC(=O)c1ccc(Cl)cc1 57.6%
CCc1ccc(N(CC)C(=O)c2ccc3c(=O)n4c(nc3c2)CCCCC4)cc1 -26.1%
COc1ccccc1Nc1nn2c(=O)c3ccc(C(=O)NCc4cccs4)cc3nc2s1 -32.1%
COc1ccc(-c2cn3c(n2)sc2cc(C(=O)NCc4ccccc4OC)ccc23)cc1 6.55%
COC(=O)c1cc(S(=O)(=O)NCC2CCN(Cc3cc(C)ccc3C)CC2)c[nH]1 -18.5%
COc1cccc(Cn2c(CNC(=O)C(C)C)nc3cccnc32)c1 6.93%
Cc1ccc2c(=O)c(C(=O)c3ccc(F)cc3)cn(CC(=O)NCc3ccccc3)c2n1 6.15%
COc1ccc(N2CCN(C(=O)c3ccc(C)c(NC(=O)c4nsc5ccccc45)c3)CC2)cc1 15.5%
COc1ccc(OC)c(S(=O)(=O)NCCc2sc(-c3ccc(C)cc3)nc2C)c1 -29.7%
CCOC(=O)c1c(NC(=O)/C=C/c2ccccc2)sc2c1CCCC2 -3.83%
COc1ccc(C(=O)Nc2ccc(-c3nc4ncccc4o3)cc2)cc1 23.4% [at 11.5 µM]
CC(C)(C)OC(=O)N1CCC(c2c(C(=O)NCc3ccccn3)cnn2-c2ccccc2)CC1 -6.94%
COc1cccc(CNC(=O)c2ccc(Cn3c(SCc4ccccc4)nc4cccnc43)cc2)c1 -27.6%
CN1[C@@H]2CCC[C@@H]1CC(NC(=O)c1nn(C)c3ccccc13)C2 (stereo partly specified) -5.67%
COc1cc(Cl)ccc1Nc1ncc(C(=O)N2CCN(c3ccccc3OC)CC2)c2ccccc12 -6.03%
O=C(CSc1nc(-c2ccccc2)nc2c1CCCC2)c1ccc(F)cc1 -11.5%
